Molecules are shown by their SMILES. About 60 (0.1%) of roughly 46,000 compounds were called active. Inconclusive results (about 3%) are left out. The call rests on the fitted dose curve; in most records, active means well fitted inhibition curve with a large enough effect; inconclusive means small, poorly fitted or top-dose-only effect; inactive means no such curve, though single readings can be large or run the other way. The list shows a part of the results.

The nature of the experiment: Primary qHTS assay for Inhibitors of ovarian cancer metastasis using an organotypic tumor microenvironment (TME) model. Further: nearly all actives have a fitted effect of over 65% in size.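 On activity change, negative = inhibition: plate controls were DMSO wells for no effect and tomatine positive control wells for full effect.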 Particulars: SKOV3ip1-GFP adhesion/invasion on 3D omental model, fluorescence; series mostly up to 45.8 µM; activity change, negative = inhibition: at the top concentration. A digest of the protocol:
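Primary human omental fibroblast/mesothelial 3D culture pre-formed 48 h. SKOV3ip1-GFP cells added with compounds (0.36-46 umol/L), incubated 2 h RT/16 h 37 C, fixed; GFP cells quantified at 488/509 nm.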
Background: Quantitative high-throughput screening tests each substance at several concentrations.
Regarding `COc1ccc(CN(C(=O)Nc2cccc(OC)c2)C2CCN(C(C)=O)CC2)cc1`, the “activity change, negative = inhibition” value was inactive: -4.5%.
Regarding `O=c1[nH]c2ccc(NCc3ccc(-c4ccc(Cl)cc4)o3)cc2[nH]1`, the “activity change, negative = inhibition” value was inactive: 8.16%.
Same read-out and setting: with `CCOc1ccccc1Nc1nc(-c2ccc(C)cc2)c(CC(=O)O)s1` the figure was inactive: -28.3%.
On to `Cc1cccc(C)c1NC(=O)CCS(=O)(=O)c1ccc2c(c1)CC(C)N2C(=O)C1CC1` (stereo not drawn), for which the outcome was inactive.
The same measure, in the same setting: under `CCOc1ccc(NC(=O)Cn2nnc(C(=O)NCc3cccs3)c2N)cc1` stands “inactive”.
As for `COc1ccc(/C=C\c2onc(C)c2S(=O)(=O)N2CCC(C(=O)Nc3cccc(C)c3C)CC2)cc1`, the “activity change, negative = inhibition” value was inactive: -6.73%.
On to `CO[C@H]1C[C@@H]2CC[C@@H](C)[C@@](O)(O2)C(=O)C(=O)N2CCCC[C@@H]2C(=O)O[C@H]([C@@H](C)C[C@@H]2CC[C@H](O)[C@H](OC)C2)CC(=O)[C@H](C)C=C(C)[C@@H](O)[C@@H](OC)C(=O)[C@H](C)C[C@H](C)C=CC=CC=C1C`, for which the “activity change, negative = inhibition” value is inactive: 33.7%.
The same measure, in the same setting: with `CC1(C)C(N(O)C(=O)Nc2ccc(Cl)cc2)N(c2ccc(Cl)cc2)C(=O)N1CC(=O)NN=CC=Cc1ccc([N+](=O)[O-])o1` (stereo not drawn) the figure was inactive: -7.8%.
As for `COc1ccc2c(c1)CCc1c(C(=O)Nc3c(C)nn(Cc4ccc(Cl)cc4)c3C)noc1-2`, the result was inactive.
Consider `Cc1oc2ncnc(N3CCOCC3)c2c1C(=O)NCc1ccccc1`, for which the “activity change, negative = inhibition” value is inactive: -3.58%.
With `O=C(CCn1cccn1)Nc1cccc(C(F)(F)F)c1`, the “activity change, negative = inhibition” value is inactive: 1.42%.
On to `COc1ccc(C(=O)NCc2ccc3c(c2)CCN3C(=O)c2cccc(C)c2)cc1OC`, for which the “activity change, negative = inhibition” value was inactive: 2.51%.
For `Cc1ccc(C(=O)c2cn(Cc3cccc(F)c3)c3nc(C)ccc3c2=O)cc1`, the “activity change, negative = inhibition” value was inactive: 26.5%.
In the case of `Cc1ccc(NC(=O)Cn2cc(C(=O)c3cccs3)c3ccccc32)cc1C`, the “activity change, negative = inhibition” value was inactive: 7.99%.
For `Cc1ccc(-n2c(=O)c3c(cnn3C)n(CC(=O)Nc3cc(C)ccc3C)c2=O)cc1`, the “activity change, negative = inhibition” value is inactive: -3.13%.
On to `O=C(CCSCc1cnn(-c2ccccc2)c1-n1cccc1)NCc1ccc(Cl)cc1`, for which the compound was classed as inactive.
As to `CCCN(Cc1cccs1)C(=O)Nc1ccc(Br)c(C)c1`, the “activity change, negative = inhibition” value was inactive: 5.69%.
`CC(C)Cn1c(-c2ccc(S(=O)(=O)N3CCCC3)cc2)csc1=Nc1ccccc1`: the “activity change, negative = inhibition” value was inactive: -1.15%.
Same read-out and setting: with `Cc1cccc(NS(=O)(=O)c2ccc(Cl)c(C(=O)Nc3ccccc3C)c2)c1` the figure was inactive: 0.841%.
As for `COc1ccc(CCNC(=O)CSc2nc3ccccc3nc2Cc2ccc(Cl)cc2)cc1OC`, the “activity change, negative = inhibition” value is inactive: 15.4%.
Regarding `Cc1nc2sccn2c(=O)c1S(=O)(=O)N1CCN(c2ccc(F)cc2)CC1`, the outcome was inactive.
Consider `CC=C(C)C(=O)O[C@H]1C(C)=C[C@]23C(=O)[C@@H](C=C(CO)[C@@H](O)[C@]12O)[C@H]1[C@@H](C[C@H]3C)C1(C)C`, for which the “activity change, negative = inhibition” value was inactive: 0.346%.
Still for that read-out and setting: with `Cc1oc(-c2ccccc2)nc1CNS(=O)(=O)c1ccc(Cl)cc1` the figure was inactive: -7.26%.
On to `O=C(NC1CC(=O)N(c2ccccc2)C1)c1cc2ccccc2o1` (stereo not drawn), for which the result was inactive.
Still for that read-out and setting: with `O=C(Nc1nnc(S(=O)(=O)N2CCCC2)s1)c1ccc(F)cc1` the entry was “inactive”.
For `COc1ccc(OC)c(-n2cnc3cc(C(=O)NC4CCCC4)ccc32)c1`, the “activity change, negative = inhibition” value is inactive: 2.44%.
On to `CCCCOc1ccccc1NC(=O)Cn1c(-c2cncs2)nc2ccccc21`, for which the result was inactive.
Regarding `Cc1cccc(-c2nc(N3CCN(c4ccc(F)cc4)CC3)c3ccccc3n2)c1`, the “activity change, negative = inhibition” value is inactive: -1.88%.
Turning to `CCOC(=O)c1cccc(NC(=O)c2cc3c(=O)n(Cc4cccnc4)ccc3nc2C)c1`, the “activity change, negative = inhibition” value is inactive: 3.41%.
Same read-out and setting: under `COc1ccc(Nc2nc3c(S(=O)(=O)c4ccccc4)nnn3c3ccc(Cl)cc23)cc1OC` stands inactive: -2.93%.
`CCCOc1ccc(NC(=O)CC2C(=O)N(c3cccc(C)c3)C(=O)N2CCc2ccncc2)cc1` (stereo not drawn): the “activity change, negative = inhibition” value was inactive: 12.3%.
Same read-out and setting: with `CCOc1ccc(-c2cc(C(=O)NCc3ccc(OC)cc3)c3c(-c4ccc(F)cc4)[nH]nc3n2)cc1` the figure was inactive: 8.39%.
Consider `CCCCCn1c(=O)[nH]c2cc(C(=O)N3CCN(c4ccccc4F)CC3)ccc2c1=O`, for which the call was inactive.
Consider `CCN1CCN(CCCNC(=O)c2cnn(-c3ccc(C)cc3)c2C2CCN(C(=O)OC(C)(C)C)CC2)CC1`, for which the “activity change, negative = inhibition” value is inactive: -6.6%.
The same measure, in the same setting: under `Cc1ccc(NC(=O)c2cc(-c3cccs3)on2)cc1C` stands inactive: 3.37%.
On the same count and under the same terms, under `Cc1ccc(-n2ncc3c(NCCCn4ccnc4)ncnc32)cc1` stands inactive: -0.296%; under `COCCCCC(=NOCCN)c1ccc(C(F)(F)F)cc1`, inactive: -17.2%.
Take `CCOC(=O)c1[nH]c2ccccc2c1NC(=O)c1ccc(OCC)cc1`: the call was inactive.
Turning to `c1csc(-c2nc3ccccn3c2Nc2ccc3c(c2)OCCO3)c1`, the “activity change, negative = inhibition” value was inactive: -2.73%.
Consider `COc1cccc(-n2c(SCC(=O)Nc3ccc(F)cc3F)nc3c([nH]c4ccccc43)c2=O)c1`, for which the “activity change, negative = inhibition” value was inactive: -0.328%.
Same read-out and setting: under `COc1nccc(-c2c(-c3ccc(F)cc3)ncn2C2CCC(O)CC2)n1` (stereo not drawn) stands inactive: 8.26%; under `COc1ccc(S(=O)(=O)NCCS(=O)(=O)N2CCN(c3ccccc3F)CC2)cc1`, inactive: -6.14%.
The same measure, in the same setting: under `Oc1c(C(c2ccc(Cl)cc2)N2CCCC2)sc2nc(-c3ccco3)nn12` (stereo not drawn) stands inactive: -2.16%.
For `CCOc1ccccc1C(=O)NCC(c1ccc(N(C)C)cc1)N1CCc2ccccc21` (stereo not drawn), the “activity change, negative = inhibition” value is inactive: 24.9%.
For the compound `COC(=O)c1c(-c2ccc(Cl)cc2)noc1N1CCN(c2cccc(OC)c2)CC1`, the “activity change, negative = inhibition” value was inactive: -23.2%.
On the same count and under the same terms, under `COc1ccc(CCNC(=O)c2ccc(Cn3c(=O)c4ccccc4n(Cc4ccccc4Cl)c3=O)cc2)cc1OC` stands inactive: -28.3%.
Turning to `Cc1c(C(=O)NCc2ccc(F)cc2)sc2nc(-c3ccccc3)cn12`, the compound was called inactive.
In the case of `Cc1nnc(N2C(=O)c3oc4ccccc4c(=O)c3C2c2ccc(F)cc2)s1` (stereo not drawn), the “activity change, negative = inhibition” value was inactive: 10.2%.
Consider `CCOc1cc(-c2ccc(OC(=O)c3ccc(Cl)cc3)c(OC)c2)cc(=O)c2c(C)oc(C)c12`, for which the “activity change, negative = inhibition” value is inactive: -5.45%.
Still for that read-out and setting: with `CC(=O)c1ccc(N2CCN(c3ncnc4onc(-c5ccc(Cl)cc5)c34)CC2)cc1` the figure was inactive: 9.22%; with `CCCCOC(=O)c1ccc(NC(=O)CSc2nc3c(c(=O)[nH]2)CCC3)cc1`, inactive: 8.44%.
In the case of `COc1ccccc1CNC(=O)c1cccc(NC(=O)N2CCSc3ncccc32)c1`, the compound was called inactive.
With `COc1cc(-c2nc3cccc(C)n3c2Nc2ccc3c(c2)OCCO3)ccc1O`, the “activity change, negative = inhibition” value is inactive: 1.19%.
Regarding `Cc1ccc(-n2ncc(C(=O)NCCCN3CCN(C)CC3)c2C2CCN(C(=O)OC(C)(C)C)CC2)cc1`, the compound was called inactive.
Same read-out and setting: with `Cc1cc(C)c(NC(=O)CN2C(=O)CCn3nc(-c4cccn4C)cc32)c(C)c1` the entry was “inactive”.
In the case of `Cc1ccccc1CN1c2ccccc2-c2nc(SCC(=O)Nc3cc(F)ccc3F)ncc2S1(=O)=O`, the “activity change, negative = inhibition” value was inactive: -5.09%.
On the same count and under the same terms, with `Cc1cccc(NC(=O)CN(C)S(=O)(=O)c2cnc[nH]2)c1C` the figure was inactive: 4.61%.
The same measure, in the same setting: under `O=C(Cc1ccc(NC(=O)N2CCCCc3ccccc32)cc1)Nc1ccccc1Br` stands inactive: -6.48%.
